Assay results: PMC3681933
No constants are given. Whether binding was seen depends on the method and setting. Binding seen in cells or lysates may run through a third protein. Tags and fused reporters may be left off the sequences shown.

Target: T1, GST-Cdc24 (S. cerevisiae) (UniProt P11433)
T1 sequence: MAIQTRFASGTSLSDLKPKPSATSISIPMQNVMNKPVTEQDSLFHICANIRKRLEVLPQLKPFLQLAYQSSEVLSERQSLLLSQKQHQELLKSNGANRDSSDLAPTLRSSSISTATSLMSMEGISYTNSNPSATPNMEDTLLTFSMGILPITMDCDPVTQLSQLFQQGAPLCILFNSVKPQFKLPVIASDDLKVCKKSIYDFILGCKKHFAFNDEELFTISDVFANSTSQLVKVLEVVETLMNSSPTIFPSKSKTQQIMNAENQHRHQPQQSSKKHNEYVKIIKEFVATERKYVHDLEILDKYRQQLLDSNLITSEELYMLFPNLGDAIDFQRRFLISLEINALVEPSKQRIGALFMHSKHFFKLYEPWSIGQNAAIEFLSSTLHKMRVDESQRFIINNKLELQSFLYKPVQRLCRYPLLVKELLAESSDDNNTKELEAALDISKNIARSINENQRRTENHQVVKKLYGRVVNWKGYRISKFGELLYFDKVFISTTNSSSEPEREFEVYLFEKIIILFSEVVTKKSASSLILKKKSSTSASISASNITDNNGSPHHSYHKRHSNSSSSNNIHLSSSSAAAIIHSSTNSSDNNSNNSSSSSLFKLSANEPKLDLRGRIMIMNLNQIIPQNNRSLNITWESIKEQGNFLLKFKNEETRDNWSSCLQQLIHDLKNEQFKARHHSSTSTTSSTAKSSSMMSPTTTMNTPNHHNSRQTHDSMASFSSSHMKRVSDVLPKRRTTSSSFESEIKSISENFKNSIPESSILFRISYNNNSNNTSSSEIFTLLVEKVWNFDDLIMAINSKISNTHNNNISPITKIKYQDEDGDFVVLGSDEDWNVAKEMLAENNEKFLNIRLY
Experiment: pull-down; GST or GST fusions induced with 2% galactose for 4 h in yeast co-expressing 3HA-Msb1 (strains YEF473A wild type or YEF1395 msb1Δ, endogenous BOI1 and BOI2 present); glutathione-Sepharose beads from Triton X-100-solubilized cell lysates; anti-HA blot

binding: no binding
B1: Msb1 tagged with three copies of HA at its N-terminus (protein, UniProt P21339 1-1137)
chain: MNDMAKPLPTPPTAEIRKSRSNSPKKAQKTNLSPNKNQNNEKNVPRSNGRTKNEHNSMDDEEFEFFHQFSREKVKGVIHVITAELKEKGPDVEFLMIPFRPEQTNDKLLTLLNQLFPLGNGQPVNEKKQLRIVSKADVWTLFQCLKYIWCRLPNSEIIGWKSYLEFKFREEDKKFPRKSFLEIMPQCLASPNHASIVYDFFDLIISISSNSRVNKMSARKISKMCAIWAFSKQIPNSDIQDYDFESAAMKSFAPNNSIQDGLDQWIPASDAMFHLLLAFLRSFVPQDLESAKLPRTLKSLLFNNQYPPRKSTAYTSETILTIPLVTLKTDVFSRKPWQLLERCNDLLDFSDHDAFEAREDYALLKSLFRKKNTVEGISRKMSQESRRLMKAMSTKHSTFQPGWAPRECIENISHLKECIEVKRLDIDDYFIWTWLSSLSFEQTSEKKKIFGRSIILEFEFDGFKKWVVFQECDITLDYNKKGQLKKKTSAQSPTTEKELPPDDFELEDPPLSKSPTLSQTYKKFQAEVPQQSTVRRDSAPDNQGIYHTVISKNALTKNKHNVNLHSFEHKISKWNPLNNLRKKSGSNSSSSSFEEKSKDAPIREEYHTNKNHKSKKEERVLSQFSTLNPDEYQLPVIETGSSNFKIEIPELMYEHDDDDSDKLKNSQKRATDSAIEELNGMVEEMMINEPDDVKISITEAETFESLTKFDQYKPSNITDDDLQSSHSSAVHSLKLSTNTNDSCADSSKYTADRKLAEPRKISEESKVNDDSSSYYSPNINNLPASRMPSQPTYSNSDSKKAFTNESRLNVLQGAVSPSQQVTPKPYKNAPGDCVSPVQQKYYQNDRRNEMSPASAPVPPSAYSPARSPQFSTNSAGFKQNTINVPVGYNDPAHVLANQPHMTYRDQHNYPSHQQKQRPFQNNIVPPELKSRNQRADASPIPQHMVPVKQGVPNLPSNVPLYQQMERMNPNHQHPVNTYKVTQPPYHNNTTNAYGNSRAGNAHMLDGKWSNNPPQMVPKGVRPNQYPQQHVNRYSPQAQPVVPAEYYNGPPPMRAPPMMSHMVPAQEPIRYTAGANRRSFPQGMQQNAYSVPAQPMGAVNSEFYLPEAPQGNKLHGNINKRQERKKLYDNIRSGNFGI
